Data as given in publication PMC12040169 (PLOS Biology, 2025).
Where two headings read alike, the source gives them in different places. The list shows a part of the results.

Tested on: T1, C. trachomatis L2/434/Bu expressing GFP (CTL2-GFP)
T1 construct: L2/434/Bu GFP intracellular growth in HeLa cells
Set-up: species or system HeLa; C. trachomatis total inclusion area by high-content imaging, normalised to DMSO
Outline: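 High-content imaging followed the bulk GFP/resorufin measurement: fixed, Hoechst-stained cells were scored for GFP inclusions and host nuclei per well. Total inclusion area and count served as growth proxies, nuclei number as the viability proxy. MIC calculation matched the bulk assay.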

[1] = total inclusion area; 28.5 h, 10 µM; inhibitor

Row | SMILES | % of control remaining [1] | % of control remaining (total inclusion area, 28.5 h, 10 µM, inhibitor)
1 | Fc1ccc(N(CCCN2CCN(c3ncccn3)CC2)c2ccc(F)cc2)cc1 [CBK025127C] | 77.7533 | 
2 | COc1ccc(Cn2cnc3[nH]ncc3c2=O)cc1 [CBK288049] | 93.0411 | 
3 | Brc1ncccc1OCc1ccccc1 [CBK001458] | 66.882 | 
4 | Cc1ccc(-c2nnc([C@H]3CCN(Cc4ccc(CO)o4)C3)o2)cc1 [CBK289399] | 106.121 | 
5 | O=C(CN1CCNCC1)Nc1ccc(Oc2ccccc2)cc1 [CBK267191C] | 137.831 | 
6 | [O-][n+]1cc(-c2ccccc2)[n+]([O-])c2c1CCCC2 [CBK264847] | 115.374 | 
7 | O=C(NCCc1cccs1)N1CCC2(CC1)OCCc1c2[nH]c2ccccc12 [CBK047129] | 98.8327 | 
8 | O=P(O)(O)Cc1ccccc1-c1ccccc1 [CBK012659] | 26.4765 | 
9 | CNC(=O)NC(=O)C(C)NCC1(c2cc(C)ccc2OC)CCOCC1 (stereo not shown) [CBK306318] | 41.9236 | 
10 | Cc1sc2nc(SCc3nc4ccccc4[nH]3)n(Cc3ccco3)c(=O)c2c1C [CBK267554] | 93.3846 | 
11 | O=C(O)C(Cc1ccccc1)N1C(=O)c2cccc([N+](=O)[O-])c2C1=O (stereo not shown) [CBK115372] | 100.627 | 
12 | CN1CCC(NC(=O)c2cccc(NC(=O)C3CCCCC3)c2)C1=O (stereo not shown) [CBK306228] | 68.9617 | 
13 | O=C(O)C1CC1C(=O)N1CCC2(CC1)OCCc1c2[nH]c2ccccc12 (stereo not shown) [CBK047167] | 82.1279 | 
14 | CC(=O)c1ccc(-c2cnc3[nH]c(=O)n(C4CCCCC4)c3n2)s1 [CBK064382] | 111.493 | 
15 | Cc1csc(NC(=O)c2cccn(Cc3cccc([N+](=O)[O-])c3)c2=O)n1 [CBK294414] | 120.492 | 
16 | O=C(O)CCCC(=O)Nc1cc([N+](=O)[O-])ccc1O [CBK265592] | 104.633 | 
17 | CCCNC(=O)CSc1ncccc1C(=O)O [CBK287202] | 101.93 | 
18 | O=C(CCc1cccnc1)N1CCC(F)CC1 [CBK200275] | 91.0886 | 
19 | O=C(/C=C/c1cccc2ccccc12)N1CCCCCC1 [CBK264092] | 107.505 | 
20 | O=C(Cc1ccc(Cl)cc1Cl)NCCc1c[nH]c2ccc(Cl)cc12 [CBK159744] | 84.0399 | 
21 | CC(=O)Nc1nc2cc3c(cc2s1)OCCO3 [CBK287618] | 82.0377 | 

Row | SMILES | % of control remaining [1] | % of control remaining (total inclusion area, 28.5 h, 10 µM, inhibitor)
22 | COc1ccc(Oc2nccc(N3CCCN(CCCO)CC3)n2)cc1OC [CBK084158] | 82.6223 | 
23 | CC(C)Nc1cc(OC2CCN(C)CC2)ncn1 [CBK113280] | 104.951 | 
24 | CCOC(=O)c1cnn2c(N)c(C(N)=O)nnc12 [CBK023694] | 19.1373 | 
25 | O=C(Nc1cccnc1)c1cnc2cc(C(F)(F)F)ccc2c1O [CBK107474] |  | 106.278
26 | CCS(=O)(=O)N1CCc2cc(-c3csc(-c4cnn(C)c4)n3)ccc21 [CBK305560] | 38.9437 | 
27 | Cc1onc(-c2ccccc2)c1-c1n[nH]c(=S)o1 [CBK009044] | 63.1689 | 
28 | O=[N+]([O-])c1ccc(OCCOc2nccnc2N2CCNCC2)c2ncccc12 [CBK000623C] | 138.235 | 
29 | O=C(O)c1ccc(Br)c(S(=O)(=O)Nc2ccc(Cl)cc2)c1 [CBK263247] | 68.6183 | 
30 | CC(NC(=O)c1ccccc1)c1nnc(SCC(=O)c2ccccc2)n1C (stereo not shown) [CBK269644] | 89.6968 | 
31 | NS(=O)(=O)c1ccc(CCNC(=O)c2ccc(C#Cc3ccccc3)cc2)cc1 [CBK263089] | 110.816 | 
32 | Cc1cc(COc2nccnc2OC2CCN(Cc3ccccc3F)CC2)no1 [CBK082948T] | 85.3961 | 
33 | CCn1c2ccccc2n2c(SC(C)C(=O)O)nnc12 (stereo not shown) [CBK267079] | 89.2557 | 
34 | Cc1ccccc1-c1nnc(SC(C)C)n1CCN(C)S(C)(=O)=O [CBK200088] | 100.415 | 
35 | CCOc1ccc2c(c1)cc(C(=O)NCc1cc(CC)no1)n2C [CBK281553] | 71.561 | 
36 | CCOC(=O)c1ccc(N2C(=O)CC(N3CCN(c4ncccn4)CC3)C2=O)cc1 (stereo not shown) [CBK263306] | 91.5518 | 
37 | CCS(=O)(=O)c1ccc2oc([C@H]3CCN(S(=O)(=O)c4ccccc4)C3)nc2c1 [CBK289382] | 103.745 | 
38 | COc1ccc(C(=O)NNC(=O)c2cccc(Cl)c2)cc1OC [CBK261704] | 78.4338 | 
39 | CCOc1ccsc1C(=O)NC1Cc2ccccc2C1 [CBK200359] | 0 | 
40 | Oc1ccc(-n2cc(-c3ccsc3)nn2)cc1 [CBK113093] | 0 | 
41 | Cc1ccn(CC(=O)N2CC[C@H]3NC(=O)COc4ccccc4CCCC[C@@H]3C2)c(=O)c1 [CBK292045] | 115.152 | 
42 | O=C(O)CCSc1nnc2[nH]c3ccccc3n12 [CBK265736] | 124.053 | 

Row | SMILES | % of control remaining [1] | % of control remaining (total inclusion area, 28.5 h, 10 µM, inhibitor)
43 | COC(=O)CC1C(=O)NCCN1C(=O)COc1ccc(Cl)cc1 (stereo not shown) [CBK264938] | 110.472 | 
44 | CCCN1CCN(CC(=O)NCc2ccco2)CC1 [CBK270300] | 88.8642 | 
45 | CC(C)CC(NC(=O)N1CCOc2ccc(Cl)cc2C1)c1ncnn1C (stereo not shown) [CBK306544] | 63.3641 | 
46 | N#Cc1ccncc1NCc1ccccc1CN1CCCC1CO (stereo not shown) [CBK304021] | 80.0074 | 
47 | COc1cc(NC(=S)P(=O)(c2ccccc2)c2ccccc2)c(OC)cc1Cl [CBK021976] | 89.7531 | 
48 | CC1=C[C@@H](CNC(=O)c2ccccn2)[C@H](C(C)C)C[C@H]1CC(=O)N1CCCC1 [CBK289207] | 89.4104 | 
49 | CC(=O)Nc1ccc(S(=O)(=O)Oc2ccc(/C=C3\SC(=N)NC3=O)cc2Cl)cc1 [CBK265357] | 100.24 | 
50 | Cc1nnc2nc(-c3cccc(Cl)c3Cl)[nH]n12 [CBK263845] | 120.044 | 
51 | Nc1nc(=O)c2cnc3ccc(C(=O)O)cc3c2s1 [CBK291239] | 124.698 | 
52 | COc1cc(C(=O)N2CCC(N(C)C)C2)ccc1Nc1cncc(-c2cc3ccccc3[nH]2)n1 (stereo not shown) [CBK161475] | 85.118 | 
53 | Cc1nc(C)c(CC(=O)NC(c2ccncc2)c2cccs2)s1 (stereo not shown) [CBK281439] | 106.697 | 
54 | Nc1ncc(-c2ccc(C(=O)N3CCOCC3)cc2)cc1C(=O)NCc1ccc(S(N)(=O)=O)cc1 [CBK158597] | 87.5423 | 
55 | O=C(NCCC1=CCCCC1)Nc1ccc(SC(F)(F)F)cc1 [CBK043725] | 78.4873 | 
56 | COc1ccccc1N1CCN(C(=O)CCC(=O)c2cccs2)CC1 [CBK091498] | 106.057 | 
57 | Cc1c(C(=O)O)c(-c2ccc(Cl)cc2)cn1CCO [CBK286959] | 112.673 | 
58 | O=C(NCCNc1cnccn1)c1cncc(Br)c1 [CBK304278] | 68.4387 | 
59 | CC(C)NC(=O)C1CCCN(c2nc3ccccc3n2C)C1 (stereo not shown) [CBK282373] | 78.8507 | 
60 | CC(=O)c1ccc(-c2nccnc2NCC2CC2)s1 [CBK037975] | 86.4946 | 
61 | CCOC(=O)CNC(=O)c1cc2ccccc2c(=O)o1 [CBK058083] | 95.0248 | 
62 | Cc1cc(C)nc(N/C(=N\C(=O)Nc2ccccc2)NCc2cccnc2)n1 [CBK132681] | 79.8084 | 
63 | CN(Cc1ccccc1)C(C#N)c1c[nH]c2ccccc12 (stereo not shown) [CBK087062] | 102.165 | 

Row | SMILES | % of control remaining [1] | % of control remaining (total inclusion area, 28.5 h, 10 µM, inhibitor)
64 | CC(C)N(C(=O)c1ccccc1-c1cnn2cccnc12)C(C)C [CBK307701] | 44.2742 | 
65 | CS(=O)(=O)Nc1ccc(-c2ccccc2)c2ccccc12 [CBK083741] | 95.4289 | 
66 | Cc1cc(S(=O)(=O)N2CCCCC2)ccc1OCC(=O)O [CBK269254] | 103.315 | 
67 | COc1ccc(Nc2nc(-c3cc(C(C)C)ccc3OC)cn3ccnc23)cn1 [CBK066354] | 106.819 | 
68 | COCc1ccc(C(=O)NCC2CCCOC2)o1 (stereo not shown) [CBK282188] | 98.6816 | 
69 | Cn1c(=O)c2c(nc(CN3CCOCC3)n2CCN2CCOCC2)n(C)c1=O [CBK269560] | 98.2172 | 
70 | c1ccc(-c2cc(-c3ccccc3)n3nc(Cc4nc5nc(-c6ccccc6)cc(-c6ccccc6)n5n4)nc3n2)cc1 [CBK261017] | 103.749 | 
71 | COc1ccc(-c2c[nH]c3c(=S)[nH]cnc23)cc1 [CBK288462] | 50.7842 | 
72 | COc1ccc(CC(=O)N2CCC(C3OCc4cc(-c5ccc(C(=O)N(C)C)cc5)ccc4O3)CC2)cc1 (stereo not shown) [CBK149759] | 93.7909 | 
73 | Cc1cc(NC(=O)c2ccc3c(c2)OCO3)nc2c1c(=O)oc1ccccc12 [CBK291121] | 95.2614 | 
74 | COCCNc1cc(-c2ccc(SC)cc2)ncn1 [CBK090795] | 90.3409 | 
75 | Cc1cc(C)n(C2CCN(Cc3cnn(C4CCCCC4)c3)CC2)n1 [CBK281804] | 106.497 | 
76 | CC(C)C(=O)N1CC2(CCN(Cc3ccc(C(C)C)cc3)CC2)c2ccccc21 [CBK122702] | 84.2067 | 
77 | O=C(O)CN1C(=O)C2(CC(=O)N(Cc3ccccc3)C2=O)c2cc(F)ccc21 (stereo not shown) [CBK076173] | 122.636 | 
78 | O=C(O)CCNc1ncnc2ccccc12 [CBK126920] | 97.9407 | 
79 | CC(C)NS(=O)(=O)c1ccc(OCC(=O)Nc2ccc3c(c2)OCCO3)cc1 [CBK265915] | 126.001 | 
80 | O=C(O)Cn1cc(C(=O)COc2ccccc2)c2ccccc21 [CBK286708] | 78.3021 | 
81 | Cc1nn(C)c(C)c1NC(=O)COc1ccc(C#N)cc1 [CBK306011] | 39.1039 | 
82 | COc1ccccc1-c1cnc(N)c(N2CCN(CCO)CC2)n1 [CBK063403] | 143.934 | 
